Data published in publication PMC4336329 (PLoS ONE, 2015).
Hit rate of the full screen: of about 310,000 compounds, about 14,000 (4.5%) showed an effect of 50% or more. Effects have a minus sign here. Some of the results follow.

Biological target: human ether-à-go-go-related gene (hERG) potassium channel (human, UniProt Q12809)
Experiment: primary screen, population patch clamp on CHO cells stably expressing hERG
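Note: peak tail current of the secondary pulse compared with the same well before compound.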

Chain of human ether-à-go-go-related gene (hERG) potassium channel (Q12809 whole entry, looked up): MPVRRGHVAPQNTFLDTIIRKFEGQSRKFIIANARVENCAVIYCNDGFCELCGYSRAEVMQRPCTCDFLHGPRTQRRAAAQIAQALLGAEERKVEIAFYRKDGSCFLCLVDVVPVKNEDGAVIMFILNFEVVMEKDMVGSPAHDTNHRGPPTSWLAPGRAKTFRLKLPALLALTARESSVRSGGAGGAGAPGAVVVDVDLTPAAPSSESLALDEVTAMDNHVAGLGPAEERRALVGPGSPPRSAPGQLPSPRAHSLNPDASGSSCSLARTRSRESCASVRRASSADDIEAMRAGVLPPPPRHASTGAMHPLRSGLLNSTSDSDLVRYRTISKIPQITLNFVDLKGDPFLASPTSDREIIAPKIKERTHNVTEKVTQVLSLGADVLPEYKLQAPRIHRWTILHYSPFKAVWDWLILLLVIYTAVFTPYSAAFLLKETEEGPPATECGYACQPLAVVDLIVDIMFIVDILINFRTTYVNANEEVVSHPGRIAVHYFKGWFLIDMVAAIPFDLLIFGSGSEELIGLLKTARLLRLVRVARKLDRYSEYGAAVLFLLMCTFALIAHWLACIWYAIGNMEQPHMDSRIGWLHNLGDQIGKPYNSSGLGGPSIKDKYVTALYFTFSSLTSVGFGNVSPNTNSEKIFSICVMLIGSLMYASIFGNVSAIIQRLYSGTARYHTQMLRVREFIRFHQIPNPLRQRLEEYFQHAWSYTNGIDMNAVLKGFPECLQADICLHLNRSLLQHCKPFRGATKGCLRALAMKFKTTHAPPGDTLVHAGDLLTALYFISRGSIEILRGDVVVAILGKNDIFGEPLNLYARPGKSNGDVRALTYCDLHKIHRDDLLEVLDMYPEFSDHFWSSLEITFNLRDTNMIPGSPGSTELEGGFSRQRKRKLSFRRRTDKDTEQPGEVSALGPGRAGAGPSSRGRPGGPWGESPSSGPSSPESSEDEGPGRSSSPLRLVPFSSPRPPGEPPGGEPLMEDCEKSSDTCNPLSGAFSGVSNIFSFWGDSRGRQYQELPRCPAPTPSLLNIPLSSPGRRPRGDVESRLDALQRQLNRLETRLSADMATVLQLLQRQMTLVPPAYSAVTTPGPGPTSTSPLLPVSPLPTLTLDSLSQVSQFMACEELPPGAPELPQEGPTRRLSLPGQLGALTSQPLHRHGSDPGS

SMILES | hERG current change (%, negative = inhibition) at 10uM
CNC(=O)c1ccccc1NC(=O)c1ccc(C)c(S(=O)(=O)N2CCCCC2)c1 | -17.2%
CCC(c1nnnn1CCc1ccccc1)N(Cc1ccco1)Cc1cc2cccc(C)c2[nH]c1=O (stereo not shown) | 10%
CCn1cc(/C=N\NC(=O)c2ccccc2Cl)cn1 | 11.7%
O=C(COc1ccccc1Cl)NCCNC(=O)c1cccnc1 | -3.71%
OCCN=Cc1c(O)[nH]c2ccccc12 | 12.8%
CC(=O)Nc1cccc(S(=O)(=O)N2CCCCCC2)c1 | 1.78%
Cc1cc(C)nc(S/C=C/C(=O)c2ccccc2)n1 | 15.6%
COC(=O)CCC(=O)OC1(C)C(=O)C=C2C=C(C3CC3)N(C3CCCC3)C=C2C1=O (stereo not shown) | 3.65%
CCOC(=O)Cn1c(=NC(=O)CSC(C)=O)sc2cc(OC)ccc21 | 7.42%
Cc1onc(-c2c(Cl)cccc2Cl)c1C(=O)c1ccccc1 | -4.77%
OCCCCc1nccc2c1[nH]c1ccccc12 | 0.0757%
COc1ccc(C(O)(CCN2CCOCC2)c2ccccc2)cc1 (stereo not shown) | -6.83%
C/C(=C\c1cccc(Br)c1)C(=O)c1c(C)cc(C)[nH]c1=O | 11.7%
Cc1ccc(-c2csc3ncnc(-n4nnc5ccccc54)c23)cc1 | -10.8%
COc1cccc2cc(C(=O)c3ccc([N+](=O)[O-])cc3)oc12 | 1.68%
CCCCOC(=O)Nc1nnc(COc2ccccc2)s1 | -14.7%
CC(C)(C)c1cc(C(=O)NNC(=O)c2ccc(Cl)cc2)no1 | -13.9%
COc1ccc(CN2C(=O)c3cccc4cccc(c34)C2=O)cc1 | 1.01%
COc1ccc(-c2noc(N3CCC(C(=O)N4CCN(c5ccccn5)CC4)CC3)n2)cc1 | -47.5%
C=CC[C@@H]1C=C(C)C[C@H](C)C[C@H](OC)[C@H]2O[C@@](O)(C(=O)C(=O)N3CCCC[C@H]3C(=O)O[C@H](/C(C)=C/[C@@H]3CC[C@@H](O)[C@H](OC)C3)[C@H](C)[C@@H](O)CC1=O)[C@H](C)C[C@@H]2OC | -2.51%
CCOC(=O)/C=C1\SCC(=O)N1Cc1ccc(Br)cc1 | 4.9%
Cc1ccccc1N(CC(=O)NCCSCc1ccco1)S(C)(=O)=O | 6.6%

SMILES | hERG current change (%, negative = inhibition) at 10uM
C=CCOc1ccccc1/C=c1\sc2nc(=O)c(C)nn2c1=O | -10.1%
Cc1cccc(NC(=O)c2ccc(-n3ccnc3)nc2)c1 | -6.67%
CCCn1c(SCC(=O)NC2CCCCC2)nnc1-c1cccnc1 | 13.2%
c1ccc(-c2cn(-c3ccccc3)c3ncnc(NCCCN4CCOCC4)c23)cc1 | -60.6%
COCCNC(=O)[C@@]1(C)C=C[C@@H](Cc2ccccc2)N1C(=O)c1ccccc1 | 0.626%
CCn1c(CN2CCCCCC2=O)nnc1SCc1cnc(-c2ccccc2)s1 | -19.3%
CC(C)CNC(=O)CCCSc1nc2ccccc2[nH]1 | 22.4%
CCc1c(C)sc2nc(SCC(=O)Nc3cc(C)on3)n(CCOC)c(=O)c12 | -0.236%
CCOc1ccc(S(=O)(=O)NCCC(=O)NCc2ccccn2)cc1 | 2.7%
COc1ccc(Cc2nnc(NC(=O)C(C)(C)C)s2)cc1 | 1.21%
O=C(Nc1ccc(Cl)cc1)C1CC=CCC1C(=O)OCC(F)(F)C(F)F (stereo not shown) | -8.23%
CCn1c(SCC(=O)Nc2c(C)n(C)n(-c3ccccc3)c2=O)nc2c1c(=O)n(C)c(=O)n2C | 18.2%
Cc1cc(OCCn2cncn2)ccc1[N+](=O)[O-] | 2.55%
O=C(C1CCOCC1)N1CCCC(N2CCN(c3cccc(C(F)(F)F)c3)CC2)C1 (stereo not shown) | -12.9%
CN(CC(=O)Nc1cccc(F)c1)C(=O)CCSc1ccc(F)cc1 | -9.23%
CCN(CC)c1ccc(NC(=O)CN2CCN(CC(=O)Nc3ccc(F)cc3)CC2)cc1 | -76.4%
Cn1nc(C(=O)Nc2cccc(S(=O)(=O)N3CCOCC3)c2)c2ccccc2c1=O | -29.5%
COc1ccc(/C=N/NC(=O)c2csc(-n3nc(C)cc3C(F)(F)F)n2)cc1 | -4.34%
N=c1occ(C(=O)c2cc(F)ccc2O)cc1C(=O)NC1CCCCC1 | 0.995%
Cl.OCCNc1nc(-c2ccccc2)nc2ccccc12 | 2.57%
COC(=O)c1cc(S(=O)(=O)N2CCN(c3ccc([N+](=O)[O-])cc3)CC2)c[nH]1 | -53.9%
CSc1nc(-c2ccc(Cl)cc2)c(C#N)c(=O)[nH]1 | 13.1%

SMILES | hERG current change (%, negative = inhibition) at 10uM
Cc1c(NS(=O)(=O)c2cccc(C(=O)NCc3ccc(Cl)cc3)c2)c(=O)n(-c2ccccc2)n1C | 6.89%
CCCCn1c(N)c(N(CC(C)C)C(=O)C2CCN(S(=O)(=O)c3ccc(C)cc3C)CC2)c(=O)[nH]c1=O | 8.25%
N#Cc1ccsc1NC(=O)CN1CCN(S(=O)(=O)c2cc(Cl)ccc2Cl)CC1 | -32%
COc1ccc(C)cc1NC(=O)CN1CCCN(S(=O)(=O)c2ccc(Br)cc2)CC1 | -39.5%
COc1ccc(S(=O)(=O)NCCCCNS(=O)(=O)c2ccc(OC)cc2)cc1 | 1.03%
Cc1cccc(NC(=S)NCC(c2ccccc2)N(C)C)c1 (stereo not shown) | -46.4%
CN(C)c1nc(-c2cccs2)cc(C(F)(F)F)c1C#N | 14.7%
OCC[C@H]1C[C@H](O)[C@@H](O)[C@@]2(CCCc3ccccc3O2)O1 | 8.31%
NC(=O)C1CCN(S(=O)(=O)c2cccc(S(=O)(=O)N3CCCCC3)c2)CC1 | -5.81%
COc1ccc(C2CC(=O)C3=C(C2)Nc2ncnn2C3c2ccccc2C)cc1 (stereo not shown) | -17.9%
Cc1cc(C)cc(N(CC(=O)NC2CCCC2)S(=O)(=O)c2c(C)[nH]c(=O)[nH]c2=O)c1 | 7.99%
O=C(NCC1CCCO1)C(c1ccc(F)cc1)N(Cc1ccc(F)cc1)C(=O)Cn1nnc(-c2cccs2)n1 (stereo not shown) | -10.9%
CC(=O)Nc1ccc(OCc2ccc(S(=O)(=O)Cc3ccccc3)cc2)cc1 | 4.51%
CNC(=O)CS(=O)CC(=O)Nc1cc(OCCOC)c(Cl)cc1Cl (stereo not shown) | 17.2%
O=[N+]([O-])c1ncn(C23CC4CC(CC(C4)C2)C3)n1 | -8.76%
O=C(CSc1ncn[nH]1)c1ccco1 | 15.3%
CN(C)C(=O)CCc1nc(-c2ccc(C(C)(C)C)cc2)no1 | -19%
COc1ccc(NC(=O)CSc2nnc(-c3cc(C)[nH]n3)n2N)cc1 | 19.9%
CCCC(C)NC(=O)/C=C/c1cccc([N+](=O)[O-])c1 (stereo not shown) | -7.16%
C[C@@H]1CC=C[C@H]2[C@H]1C(=O)N(Cc1ccccc1)[C@H]2c1ccc(-c2cc3ccccc3s2)cc1F | 4.46%
CCCCN(C(=O)C1CC(=O)N(Cc2ccc(C)cc2)C1)c1c(N)n(CC(C)C)c(=O)[nH]c1=O (stereo not shown) | 7.76%
COc1ccc(CC(=O)OCCN(C)C)cc1.Cl | 11.8%

SMILES | hERG current change (%, negative = inhibition) at 10uM
Cc1sc2nc(CN(C(=O)NCc3ccccc3)C3CCCC3)[nH]c(=O)c2c1C | -4.47%
O=c1[nH]c(CSc2nc3ccccc3s2)nc2ccccc12 | 2.6%
Cc1nn(Cc2ccc(Cl)c(Cl)c2)c(C)c1NC(=O)c1cc(-c2ccco2)on1 | 0.359%
Cc1cc(C(=O)CN2C(=O)NC3(CCCc4ccccc43)C2=O)c(C)n1C (stereo not shown) | -13.5%
O=S(=O)(c1cc(Br)ccc1Br)N1CCCCCC1 | -8.75%
OC(CNCCNc1ncccc1C(F)(F)F)Cn1ccc2ccccc21 (stereo not shown) | -45.3%
CCOC(=O)c1[nH]c(C)c(C(=O)NC2CCCCCC2)c1C | 0.467%
N#CCC(=O)Nc1ccc(C(=O)OCC(=O)NCCCc2ccccc2)cc1 | 15.1%
O=C(CSc1nc2ccccc2s1)N/N=C/c1cc([N+](=O)[O-])ccc1O | 18.5%
COc1ccc(C(C[N+](=O)[O-])n2nc(C)cc2C)cc1 (stereo not shown) | 19.1%
COC(=O)c1ccccc1NC(=O)CN(c1c(C)cccc1C)S(C)(=O)=O | 10.1%
CCOC(=O)[C@H]1[C@H]2COc3ccc(OC)cc3[C@@H]2N2C(=O)c3cc(OC)c(OC)cc3NC(=O)[C@@]12C | -4.71%
O=C(CCC(=O)N(CC(=O)NC1CCCC1)Cc1ccc2c(c1)OCO2)Nc1nccs1 | 5.18%
COc1ccccc1N1CCN(CCCCCCOc2ccc(F)cc2)CC1 | -67.2%
Cc1[nH]c2c(C)cccc2c1CC(=O)O | 12.9%
Cc1[nH]c2ccccc2c1C(=O)C(=O)N1CCN(c2ccccc2Cl)CC1 | 3.63%
CCC(CC)C(=O)c1c[nH]c(C(=O)NCCc2ccccn2)c1 | 6.03%
COC/C=C/C1=CC2=CC(=O)C(C)(OC(=O)c3cnc4ccccc4n3)C(=O)C2=CN1CCCCO (stereo not shown) | 2.04%
CCN(CC)C(=O)c1ccc(O)c(OC)c1 | 34.6%
